{"source": "PubChem BioAssay AID2147", "about": "(National Center for Advancing Translational Sciences (NCATS), 2009)", "note": "In all, about 230,000 compounds went through this assay and about 3,600 (1.6%) were called active. Inconclusive means that the source gave no clear call. Such entries were picked first, then a sample of the others. Calls come from the whole dose curve; as a rule, active = well fitted inhibition curve with a large enough effect (not every such curve was filed as active); inconclusive = small, poorly fitted or top-dose-only effect, or another doubt; inactive = no such curve, though single readings can be large or run the other way. Where the call is inconclusive, the potency comes from a doubtful curve fit. Note: nearly all actives have a fitted effect of over 50% in size. Potency is the fitted concentration of half-maximal effect; tags give direction and shape of the fitted curve."}
{"target": "Lysine-specific demethylase 4E (Homo sapiens) (UniProt B2RXH2)", "sequence (B2RXH2 whole entry, looked up, the tested form may be a part)": "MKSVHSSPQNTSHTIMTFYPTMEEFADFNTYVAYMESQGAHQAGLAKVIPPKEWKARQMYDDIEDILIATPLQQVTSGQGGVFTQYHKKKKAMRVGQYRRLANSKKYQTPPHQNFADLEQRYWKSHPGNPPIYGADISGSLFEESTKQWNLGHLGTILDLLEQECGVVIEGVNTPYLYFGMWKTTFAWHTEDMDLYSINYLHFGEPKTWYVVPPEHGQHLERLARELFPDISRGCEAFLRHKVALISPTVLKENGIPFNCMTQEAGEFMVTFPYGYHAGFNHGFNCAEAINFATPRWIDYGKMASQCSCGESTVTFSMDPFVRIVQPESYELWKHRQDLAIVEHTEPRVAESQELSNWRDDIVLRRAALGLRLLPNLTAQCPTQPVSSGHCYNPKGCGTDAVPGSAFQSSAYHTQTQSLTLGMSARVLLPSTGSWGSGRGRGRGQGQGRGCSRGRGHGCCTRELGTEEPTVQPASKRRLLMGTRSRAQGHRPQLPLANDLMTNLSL", "test": "qHTS Assay for Inhibitors of Human Jumonji Domain Containing 2E (JMJD2E)", "conditions": "JMJD2E catalytic domain, FDH-coupled NADH fluorescence (FDH is formaldehyde dehydrogenase); series mostly up to 57.1 µM"}
{"molecule": "C=CC1=C(C)C2=NC1=CC1=NC(=CC3=NC(=CC4=NC(=C2)C(C)=C4CCC(=O)O)C(CCC(=O)O)=C3C)C(C=C)=C1C.[Zn]", "Potency": "inconclusive: 8.91 µM [inhibitor, full curve]"}
{"molecule": "CC(C)=NNC(=O)c1c(O)c2ccccc2[nH]c1=O", "Potency": "inconclusive: 31.6 µM [inhibitor, single point]"}
{"molecule": "COc1cccc(/C=C/C(=O)OCC(=O)NCc2ccc(Cl)cc2)c1", "Potency": "inconclusive: 31.6 µM [inhibitor, partial curve]"}
{"molecule": "COc1ccc(CC(=O)Nc2ccc(-c3nnc(-c4ccccc4)o3)cc2)cc1", "Potency": "inconclusive: 35.5 µM [inhibitor, single point]"}
{"molecule": "O=C(Nc1cccc(S(=O)(=O)N2CCCCC2)c1)c1ccc2ccccc2n1", "Potency": "inactive"}
{"molecule": "CC1CCCCN1Cc1c(O)ccc2c(=O)c(-c3nc4ccccc4s3)c(N)oc12", "note": "(stereo not drawn)", "Potency": "inconclusive: 12.6 µM [inhibitor, partial curve]"}
{"molecule": "CN1/C(=C\\C(=O)Nc2cccc(Cl)c2)C(C)(C)c2ccccc21", "Potency": "inconclusive: 39.8 µM [inhibitor, single point]"}
{"molecule": "Cc1ccc(C(=O)N/C(=C/c2ccc(-c3cc(C(F)(F)F)ccc3Cl)o2)C(=O)NCc2cccnc2)cc1", "Potency": "inconclusive: 35.5 µM [inhibitor, single point]"}
{"molecule": "COC(=O)c1nn(-c2ccc(-c3ccccc3)cc2)cc1O", "Potency": "inconclusive: 31.6 µM [inhibitor, partial curve]"}
{"molecule": "COc1ccccc1NC(=O)Cn1c(CCC(=O)O)ccc1-c1ccc(C)cc1", "Potency": "inconclusive: 28.2 µM [inhibitor, single point]"}
{"molecule": "O=C(OC(C(=O)NC1CCCC1)c1cccnc1)C1=Cc2ccccc2OC1", "note": "(stereo not drawn)", "Potency": "inconclusive: 31.6 µM [inhibitor, single point]"}
{"molecule": "C=CCOC(=O)c1[nH]c2c(c1C)C(=O)CC(c1ccco1)C2", "note": "(stereo not drawn)", "Potency": "inactive"}
{"molecule": "CC1CCCCN1S(=O)(=O)c1ccc(N(C(=O)c2cnccn2)C(C(=O)NC2CCCCC2)c2cccs2)cc1", "note": "(stereo not drawn)", "Potency": "inactive"}
{"molecule": "COC(=O)c1[nH]c2cc(OC)ccc2c1NC(=O)CN1CCN(c2cccc(C)c2)C(C)C1", "note": "(stereo not drawn)", "Potency": "inconclusive: 28.2 µM [inhibitor, single point]"}
{"molecule": "CCC(C(=O)OCC(=O)Nc1ccc(C(N)=O)cc1)c1ccccc1", "note": "(stereo not drawn)", "Potency": "inactive"}
{"molecule": "CCNc1ccc(Br)cc(C(=O)/C=C/c2ccc(Cl)cc2)c1=O", "Potency": "active: 25.1 µM"}
{"molecule": "CC(=O)c1cccc(NC(=O)CCNS(=O)(=O)c2cccc3nonc23)c1", "Potency": "inactive"}
{"molecule": "CCOc1ccc(C2C(C#N)=C(N)SC(N)=C2C#N)c(OCC)c1", "Potency": "inconclusive: 31.6 µM [inhibitor, single point]"}
